Reference: PubChem BioAssay AID1347417 (National Center for Advancing Translational Sciences (NCATS), 2020)
Out of some 120,000 compounds screened, about 5,300 (4.4%) were called active. The inconclusive results got no clear call from the source; some entries with a clear call stand among them for comparison. Calls follow the shape of the dose curve; as a rule, active = well fitted inhibition curve with a large enough effect; inconclusive = small, poorly fitted or top-dose-only effect; inactive = no such curve, though single readings can be large or run the other way. Potencies beside an inconclusive call are fits to weak or partial responses and may not hold up.

Assay: qHTS Primary assay for Inhibitors of Plasmodium falciparum Dd2 growth in vitro; also: nearly all actives have a fitted effect of over 65% in size;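 as to activity, negative = inhibition: plate controls were DMSO vehicle for no effect and reference drug for full effect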
Conditions: P. falciparum Dd2 growth, SYBR Green, 72 h; activity, negative = inhibition: at 28.9 µM (top of the series) unless noted; series mostly up to 28.9 µM
Procedure, shortened: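 Readout: SYBR Green fluorescence, 485 nm excitation, 535 nm emission, after ~16 h lysis at 37C. Before that, Dd2-infected red cells (2.5% hematocrit) grew 72 h with compound, 29 uM top final concentration.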
Potency is read from the fitted curve at half-maximal effect; tags tell the direction and shape of the fitted curve.

Compound | activity, negative = inhibition | Potency | outcome
CS(=O)(=O)CC(=O)Nc1ccccc1C(=O)NCc1ccccn1 | inactive: -9.71% | – | –
Cn1cc(C2CCN(C(=O)c3sc(Cl)c(Cl)c3Cl)CC2)c2ccccc21 | – | active: 7.94 µM | –
CC(C)N1CC[C@@H]2[C@H]1C(=O)NC[C@H](CCC(=O)N1CCN(c3ccccn3)CC1)N2C | inactive: 14.6% [at 44.1 µM] | – | –
COc1ccc(-n2c(SCC(=O)Nc3ccc4c(c3)OCO4)nc3c([nH]c4ccccc43)c2=O)cc1 | – | inconclusive: 1 µM [inhibitor, partial curve, poor fit] | –
CCS(=O)(=O)N1C[C@@H](COC)[C@H](c2nc(C3CC3)no2)C1 | – | – | inactive
c1ccc(-c2cnc([C@@H]3COCCN3Cc3cnc[nH]3)[nH]2)cc1 | – | inconclusive: 28.2 µM [inhibitor, single point] | –
CCOC(=O)c1scc(-c2ccc(C)cc2)c1S(=O)(=O)N1CCN(c2ccccc2)CC1 | – | inconclusive: 8.91 µM [inhibitor, single point] | –
Cc1ccc2c(n1)N(C)[C@H](CO)CCN(C(=O)Nc1ccccc1)C2 | – | inconclusive: 10 µM [inhibitor, partial curve, poor fit] | –
O=C(NC1CCCC1)N1CC(Oc2ccc(-c3nc(-c4ccccc4)no3)cc2)C1 | inactive: 74.2% [at 5.79 µM] | – | –
Cc1ccc(-c2nnc(Nc3ccc(O)cc3)c3ccccc23)cc1S(=O)(=O)NC(C)(C)CO | – | inconclusive: 0.794 µM [inhibitor, partial curve, poor fit] | –
O=C(c1cccc(-n2cnnc2)c1)N1CCC[C@H]1c1nc(-c2ccncc2)no1 | inactive: -0.913% | – | –
CC(C)N1C[C@H](O)C[C@H]1c1nc(-c2ccc(F)cc2)no1 | – | – | inactive [at 44.1 µM]
CN(CCc1noc(C2CC2)n1)C(=O)C1CC(=O)N(C(C)(C)C)C1 (stereo not drawn) | inactive: -7.06% | – | –
CCOc1ccc(C(=O)NCC(c2ccc3c(c2)OCO3)N2CCN(C)CC2)cc1 (stereo not drawn) | – | inconclusive: 17.8 µM [inhibitor, single point] | –
Cc1cc(C)cc(C(=O)N2CCC(Oc3ccc(C(=O)N(C)C)cn3)CC2)c1 | – | inconclusive: 12.6 µM [inhibitor, single point] | –
COc1cc(=O)n2c(c1C(=O)NCc1ccc(F)cc1)CCCC2 | inactive: 13.8% | – | –
COc1ccc(C(=O)N[C@@H]2CCC[C@@H]2C(=O)N2CCN(C(=O)c3ccco3)CC2)cn1 | – | inconclusive: 0.447 µM [inhibitor, full curve, poor fit] | –
O=C(CN1C(=O)c2ccccc2Sc2ncccc21)Nc1cccc(C(F)(F)F)c1 | – | inconclusive: 17.8 µM [inhibitor, single point] | –
CCN(CC)C(=O)c1ccc(CN2C(=O)NC3(CCS(=O)(=O)CC3)C2=O)cc1 | inactive: -2.23% | – | –
CCc1noc(-c2cn(C3CCN(C(=O)c4cc(Cl)ccc4F)CC3)nn2)n1 | – | inconclusive: 11.2 µM [inhibitor, partial curve] | –
CCOC(=O)c1ccc(NC(=O)c2c(NCc3ccc(OC)c(OC)c3OC)sc3c2CCC(C)C3)cc1 (stereo not drawn) | – | active: 10 µM | –
O=C(NCC(c1cccnc1)N1CCc2ccccc21)c1cccc(F)c1 (stereo not drawn) | – | inconclusive: 11.2 µM [inhibitor, partial curve] | –

Compound | activity, negative = inhibition | Potency | outcome
Cc1cnc(CC2CCCN(Cc3ccc(C#N)cc3)C2)n1C(C)C (stereo not drawn) | – | inconclusive: 1.41 µM [inhibitor, partial curve, poor fit] | –
CCc1cccc(NC(=O)Cn2c(COc3ccc(OC)cc3)nc(C)c(CCO)c2=O)c1 | inactive: 23.8% | – | –
CCN(CC)C(=O)c1sc2c(c1C)c(=O)n(Cc1ccccc1)c(=O)n2Cc1c(C)cc(C)cc1C | – | active: 10 µM | –
C#CCNC(=O)[C@H]1O[C@H](CCN(C)CCc2ccccc2)CC[C@@H]1O | – | inconclusive: 10 µM [inhibitor, partial curve] | –
O=C(O)c1ccc(CC2CCN(Cc3ccncc3)C2)cc1 (stereo not drawn) | inactive: -4.36% | – | –
COc1ccc(OCC(=O)N2CCN(C(=O)c3cccc(OC)c3OC)CC2)cc1 | inactive: -0.78% | – | –
Cn1cc(C(=O)NC2CC(c3cc(N4CCOCC4)ncn3)C2)cn1 (stereo not drawn) | inactive: -3.76% | – | –
COc1ccc(-c2cc(N3CCC(NC(=O)c4ccc(C)c(F)c4)CC3)n[nH]2)cc1 | – | inconclusive: 1.78 µM [inhibitor, partial curve, poor fit] | –
CCOc1ccc(-c2cc(CCCC(=O)NCCc3ccc(SC)cc3)no2)cc1 | – | inconclusive: 10 µM [inhibitor, single point] | –
Cc1cccc(Nc2nnc(-c3ccc(C)c(S(=O)(=O)N4CCOCC4)c3)c3ccccc23)c1 | – | inconclusive: 10 µM [inhibitor, single point] | –
COc1ccc(CCNCc2c(C(=O)O)c(C)n(Cc3cccc(C)c3)c2C)cc1OC | – | inconclusive: 10 µM [inhibitor, single point] | –
CC(NC(=O)c1ccc(-c2nnc3ccc(NC(=O)C4CCC4)cn23)cc1)c1cccs1 (stereo not drawn) | – | inconclusive: 0.794 µM [inhibitor, partial curve, poor fit] | –
O=C1CCN(S(=O)(=O)c2ccccc2)CCCN(C(=O)CCc2nc3ccccc3[nH]2)CCN1 | – | inconclusive: 10 µM [inhibitor, single point] | –
COCCCNC(=O)CN1C(=O)COc2ccc(C(=O)COc3ccc(OC)cc3)cc21 | – | inconclusive: 10 µM [inhibitor, partial curve, poor fit] | –
Cc1ncc2n1C(=O)N(C1CCN(C(=O)c3ccccc3)CC1)C2 | inactive: 9.67% [at 44.1 µM] | – | –
CCOC(=O)c1cc(S(=O)(=O)N(C)c2ccccc2)[nH]n1 | inactive: -18.9% | – | –
CCCN1C(=O)Cc2ccccc2C1C(=O)NCc1ccc(F)cc1Cl (stereo not drawn) | inactive: -16.8% | – | –
Cc1ccc(NS(=O)(=O)c2ccc3[nH]c4c(c3c2)CCCCCC4)cc1C | – | inconclusive: 20 µM [inhibitor, single point] | –
CN(Cc1ccccc1)Cc1cn([C@H]2CO[C@H]3[C@@H]2OC[C@@H]3NS(=O)(=O)c2cccc3cccnc23)nn1 | – | inconclusive: 2 µM [inhibitor, single point] | –
CN(C)c1ccc(-c2nnc([C@H]3CCN(Cc4ccccc4)C3)o2)cc1 | – | inconclusive: 12.6 µM [inhibitor, partial curve, poor fit] | –
O=C(CN1CCOC1=O)N1CCCC(c2ccccc2)(c2ccccc2)C1 | inactive: -27.3% | – | –
